Assay results: the supplement of paper PMC8728848
This is one part of the list.

Tests used:
Experiment in all cases: glycan array binding signal (z-score within array); higher = stronger binding
Conditions in all cases: glycan notation: IUPAC condensed, linker removed
[1] = biological target: Gal(b1-3)GlcNAc(b1-6)[Gal(b1-3)]GalNAc
Procedure, shortened: (§1)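 Glycan array data were curated from 3228 arrays in the Consortium for Functional Glycomics database and kept only where the protein sequence was available. Glycan names were converted to IUPAC-condensed notation, and columns mapping to the same glycan were averaged. The binding signal is a within-array Z-score, averaged across arrays of the same protein sequence at different concentrations or buffers and across linkers. Negative Z-scores can be read as non-binding.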

[2] = biological target: Gal(b1-3)GlcNAc6S
Procedure, shortened: as §1

[3] = biological target: Gal(b1-3)[Fuc(a1-4)]GlcNAc
Procedure, shortened: as §1

[4] = biological target: Gal(b1-3)[Fuc(a1-4)]GlcNAc(b1-2)Man
Procedure, shortened: as §1

[5] = biological target: Gal(b1-3)[Fuc(a1-4)]GlcNAc(b1-2)Man(a1-3)[Gal(b1-3)[Fuc(a1-4)]GlcNAc(b1-2)Man(a1-6)]Man(b1-4)GlcNAc(b1-4)[Fuc(a1-6)]GlcNAc
Procedure, shortened: as §1

[6] = biological target: Gal(b1-3)[Fuc(a1-4)]GlcNAc(b1-3)Gal(b1-3)[Fuc(a1-4)]GlcNAc
Procedure, shortened: as §1

[7] = biological target: Gal(b1-3)[Fuc(a1-4)]GlcNAc(b1-3)Gal(b1-4)[Fuc(a1-3)]GlcNAc
Procedure, shortened: as §1

[8] = biological target: Gal(b1-3)[Fuc(a1-4)]GlcNAc(b1-6)GalNAc
Procedure, shortened: as §1

[9] = biological target: Gal(b1-3)[GlcNAc(b1-6)]GalNAc
Procedure, shortened: as §1

[10] = biological target: Gal(b1-3)[Neu5Ac(a2-6)]GalNAc
Procedure, shortened: as §1

[11] = biological target: Gal(b1-3)[Neu5Ac(a2-6)]GlcNAc(b1-4)Gal(b1-4)Glc
Procedure, shortened: as §1

[12] = biological target: Gal(b1-3)[Neu5Ac(b2-6)]GalNAc
Procedure, shortened: as §1

[13] = biological target: Gal(b1-4)Gal
Procedure, shortened: as §1

[14] = biological target: Gal(b1-4)GalNAc(a1-3)[Fuc(a1-2)]Gal(b1-4)GlcNAc
Procedure, shortened: as §1

[15] = biological target: Gal(b1-4)GalNAc(b1-3)[Fuc(a1-2)]Gal(b1-4)GlcNAc
Procedure, shortened: as §1

[16] = biological target: Gal(b1-4)Glc
Procedure, shortened: as §1

[17] = biological target: Gal(b1-4)Glc6S
Procedure, shortened: as §1

[18] = biological target: Gal(b1-4)GlcNAc
Procedure, shortened: as §1

[19] = biological target: Gal(b1-4)GlcNAc(a1-6)Gal(b1-4)GlcNAc
Procedure, shortened: as §1

[20] = biological target: Gal(b1-4)GlcNAc(b1-2)Man
Procedure, shortened: as §1

[21] = biological target: Gal(b1-4)GlcNAc(b1-2)Man(a1-3)Man(b1-4)GlcNAc(b1-4)GlcNAc
Procedure, shortened: as §1

[22] = biological target: Gal(b1-4)GlcNAc(b1-2)Man(a1-3)[Gal(b1-4)GlcNAc(b1-2)Man(a1-6)]Man(b1-4)GlcNAc(b1-4)GlcNAc
Procedure, shortened: as §1

[23] = biological target: Gal(b1-4)GlcNAc(b1-2)Man(a1-3)[Gal(b1-4)GlcNAc(b1-2)Man(a1-6)]Man(b1-4)GlcNAc(b1-4)[Fuc(a1-6)]GlcNAc
Procedure, shortened: as §1

[24] = biological target: Gal(b1-4)GlcNAc(b1-2)Man(a1-3)[Gal(b1-4)GlcNAc(b1-2)Man(a1-6)][Gal(b1-4)GlcNAc(b1-4)]Man(b1-4)GlcNAc(b1-4)[Fuc(a1-6)]GlcNAc
Procedure, shortened: as §1

[25] = biological target: Gal(b1-4)GlcNAc(b1-2)Man(a1-3)[Gal(b1-4)GlcNAc(b1-2)Man(a1-6)][GlcNAc(b1-4)]Man(b1-4)GlcNAc(b1-4)[Fuc(a1-6)]GlcNAc
Procedure, shortened: as §1

[26] = biological target: Gal(b1-4)GlcNAc(b1-2)Man(a1-3)[GlcNAc(b1-2)Man(a1-6)]Man(b1-4)GlcNAc(b1-4)GlcNAc
Procedure, shortened: as §1

[27] = biological target: Gal(b1-4)GlcNAc(b1-2)Man(a1-3)[GlcNAc(b1-4)][Gal(b1-4)GlcNAc(b1-2)Man(a1-6)]Man(b1-4)GlcNAc(b1-4)GlcNAc
Procedure, shortened: as §1

[28] = biological target: Gal(b1-4)GlcNAc(b1-2)Man(a1-3)[Man(a1-6)]Man(b1-4)GlcNAc(b1-4)GlcNAc
Procedure, shortened: as §1

[29] = biological target: Gal(b1-4)GlcNAc(b1-2)Man(a1-6)Man(b1-4)GlcNAc(b1-4)GlcNAc
Procedure, shortened: as §1

[30] = biological target: Gal(b1-4)GlcNAc(b1-2)Man(a1-6)[GlcNAc(b1-2)Man(a1-3)]Man(b1-4)GlcNAc(b1-4)GlcNAc
Procedure, shortened: as §1

[31] = biological target: Gal(b1-4)GlcNAc(b1-2)Man(a1-6)[Man(a1-3)]Man(b1-4)GlcNAc(b1-4)GlcNAc
Procedure, shortened: as §1

[32] = biological target: Gal(b1-4)GlcNAc(b1-2)[Gal(b1-4)GlcNAc(b1-4)]Man(a1-3)[Gal(b1-4)GlcNAc(b1-2)Man(a1-6)]Man(b1-4)GlcNAc(b1-4)GlcNAc
Procedure, shortened: as §1

[33] = biological target: Gal(b1-4)GlcNAc(b1-2)[Gal(b1-4)GlcNAc(b1-4)]Man(a1-3)[Gal(b1-4)GlcNAc(b1-2)[Gal(b1-4)GlcNAc(b1-6)]Man(a1-6)]Man(b1-4)GlcNAc(b1-4)GlcNAc
Procedure, shortened: as §1

[34] = biological target: Gal(b1-4)GlcNAc(b1-2)[Gal(b1-4)GlcNAc(b1-4)]Man(a1-3)[GlcNAc(b1-4)][Gal(b1-4)GlcNAc(b1-2)Man(a1-6)]Man(b1-4)GlcNAc(b1-4)GlcNAc
Procedure, shortened: as §1

[35] = biological target: Gal(b1-4)GlcNAc(b1-2)[Gal(b1-4)GlcNAc(b1-4)]Man(a1-3)[GlcNAc(b1-4)][Gal(b1-4)GlcNAc(b1-2)[Gal(b1-4)GlcNAc(b1-6)]Man(a1-6)]Man(b1-4)GlcNAc(b1-4)GlcNAc
Procedure, shortened: as §1

[36] = biological target: Gal(b1-4)GlcNAc(b1-2)[Gal(b1-4)GlcNAc(b1-6)]Man(a1-6)[Gal(b1-4)GlcNAc(b1-2)Man(a1-3)]Man(b1-4)GlcNAc(b1-4)GlcNAc
Procedure, shortened: as §1

[37] = biological target: Gal(b1-4)GlcNAc(b1-2)[Gal(b1-4)GlcNAc(b1-6)]Man(a1-6)[Gal(b1-4)GlcNAc(b1-2)Man(a1-3)]Man(b1-4)GlcNAc(b1-4)[Fuc(a1-6)]GlcNAc
Procedure, shortened: as §1

[38] = biological target: Gal(b1-4)GlcNAc(b1-2)[Gal(b1-4)GlcNAc(b1-6)]Man(a1-6)[GlcNAc(b1-4)][Gal(b1-4)GlcNAc(b1-2)Man(a1-3)]Man(b1-4)GlcNAc(b1-4)GlcNAc
Procedure, shortened: as §1

[39] = biological target: Gal(b1-4)GlcNAc(b1-2)[Gal(b1-4)GlcNAc(b1-6)]Man(a1-6)[GlcNAc(b1-4)][Gal(b1-4)GlcNAc(b1-2)[Gal(b1-4)GlcNAc(b1-4)]Man(a1-3)]Man(b1-4)GlcNAc(b1-4)[Fuc(a1-6)]GlcNAc
Procedure, shortened: as §1

[40] = biological target: Gal(b1-4)GlcNAc(b1-3)Gal(b1-3)GalNAc
Procedure, shortened: as §1

[41] = biological target: Gal(b1-4)GlcNAc(b1-3)Gal(b1-3)GlcNAc
Procedure, shortened: as §1

[42] = biological target: Gal(b1-4)GlcNAc(b1-3)Gal(b1-4)Glc
Procedure, shortened: as §1

[43] = biological target: Gal(b1-4)GlcNAc(b1-3)Gal(b1-4)GlcNAc
Procedure, shortened: as §1

[44] = biological target: Gal(b1-4)GlcNAc(b1-3)Gal(b1-4)GlcNAc(b1-2)Man(a1-3)[Gal(b1-4)GlcNAc(b1-3)Gal(b1-4)GlcNAc(b1-2)Man(a1-6)]Man(b1-4)GlcNAc(b1-4)GlcNAc
Procedure, shortened: as §1

[45] = biological target: Gal(b1-4)GlcNAc(b1-3)Gal(b1-4)GlcNAc(b1-2)Man(a1-3)[Gal(b1-4)GlcNAc(b1-3)Gal(b1-4)GlcNAc(b1-2)Man(a1-6)]Man(b1-4)GlcNAc(b1-4)[Fuc(a1-6)]GlcNAc
Procedure, shortened: as §1

B1: SBD-G4S3-SBD (protein)
chain: MASIPSSASVQLDSYNYDGSTFSGKIYVKNIAYSKKVTVVYADGSDNWNNNGNIIAASFSGPISGSNYEYWTFSASVKGIKEFYIKYEVSGKTYYDNNNSANYQVSTGGGGSGGGGSGGGGSEFASIPSSASVQLDSYNYDGSTFSGKIYVKNIAYSKKVTVVYADGSDNWNNNGNIIAASFSGPISGSNYEYWTFSASVKGIKEFYIKYEVSGKTYYDNNNSANYQVST
glycan array binding signal (z-score) [1]: -0.012
glycan array binding signal (z-score) [2]: -0.404
glycan array binding signal (z-score) [3]: -0.4
glycan array binding signal (z-score) [4]: -0.157
glycan array binding signal (z-score) [5]: 0.242
glycan array binding signal (z-score) [6]: -0.367
glycan array binding signal (z-score) [7]: -0.396
glycan array binding signal (z-score) [8]: 4.38
glycan array binding signal (z-score) [9]: -0.371
glycan array binding signal (z-score) [10]: -0.416
glycan array binding signal (z-score) [11]: -0.092
glycan array binding signal (z-score) [12]: -0.425
glycan array binding signal (z-score) [13]: 3.02
glycan array binding signal (z-score) [14]: 0.23
glycan array binding signal (z-score) [15]: -0.41
glycan array binding signal (z-score) [16]: -0.301
glycan array binding signal (z-score) [17]: 0.178
glycan array binding signal (z-score) [18]: -0.361
glycan array binding signal (z-score) [19]: -0.002
glycan array binding signal (z-score) [20]: -0.298
glycan array binding signal (z-score) [21]: 0.338
glycan array binding signal (z-score) [22]: -0.028
glycan array binding signal (z-score) [23]: -0.131
glycan array binding signal (z-score) [24]: 1.85
glycan array binding signal (z-score) [25]: -0.191
glycan array binding signal (z-score) [26]: 0.022
glycan array binding signal (z-score) [27]: -0.082
glycan array binding signal (z-score) [28]: -0.387
glycan array binding signal (z-score) [29]: -0.339
glycan array binding signal (z-score) [30]: 0.412
glycan array binding signal (z-score) [31]: 1.01
glycan array binding signal (z-score) [32]: -0.267
glycan array binding signal (z-score) [33]: 0.758
glycan array binding signal (z-score) [34]: 0.111
glycan array binding signal (z-score) [35]: 1.8
glycan array binding signal (z-score) [36]: 1.55
glycan array binding signal (z-score) [37]: 4.53
glycan array binding signal (z-score) [38]: 0.505
glycan array binding signal (z-score) [39]: -0.285
glycan array binding signal (z-score) [40]: -0.052
glycan array binding signal (z-score) [41]: 1.25
glycan array binding signal (z-score) [42]: -0.301
glycan array binding signal (z-score) [43]: -0.394
glycan array binding signal (z-score) [44]: 0.379
glycan array binding signal (z-score) [45]: 2.59
